This note sets out measurements from ChEMBL document CHEMBL4888484, “Replenishing the malaria drug discovery pipeline: Screening and hit evaluation of the MMV Hit Generation Library 1 (HGL1) against asexual blood stage Plasmodium falciparum ,using a nano luciferase reporter read-out” (2022).

SMILES strings stand for the structures. The campaign covered roughly 150,000 compounds. About 540 (0.36%) showed an effect of 50% or more. This is one part of the list.

The subject of this experiment is Plasmodium falciparum. Description: Primary screen in NF54 nanoGlo assay, in single point, at 2uM, 72h; a lower Z score goes with more inhibition. Type of experiment: functional, Erythrocyte. Particulars: timepoint 72 hour.
`CCC1(CO)CCN(C(=O)NCc2cnc(CC(C)C)s2)CC1`: the “% Inhibition” value stood at 0% and the Z score worked out at 0.01.
The corresponding values for `Cc1c[nH]c(CN2CCC(Oc3ccc(Cl)cc3C(=O)NC(C)(C)C)CC2)n1` are -13% and 1.71.
The corresponding values for `CNC(=O)[C@@H](C)CN(C)C(=O)Nc1cccc(N(C)C(C)C)c1` are -7% and 0.79.
The corresponding values for `COc1cccc(CN(CC(C)C)C(=O)CN2C(=O)CCNC2=O)c1` are 6% and -0.7.
As to `C[C@@H]1Oc2ccccc2CN(CCc2cccs2)C1=O`, the “% Inhibition” value is 2% and the Z score was -0.24.
The matching figures for `C[C@]1(c2ccccc2)C[C@H]1C(=O)NCCc1nc2c(s1)COCC2`: -9% and 1.15.
The corresponding values for `COCc1nc(CCCN2CCCC2=O)n(Cc2ccc(Cl)cc2)n1` are -5% and 0.6.
With `CN(C(=O)c1ccc2nccnc2c1)[C@H]1CCCN(CCCc2ccccc2)C1`, the “% Inhibition” value is -6% and the Z score is recorded as 0.89.
The matching figures for `COc1ccc(N2C(=O)c3ccccc3NC23CCCCC3)cc1`: 4% and -0.74.
The corresponding values for `O=C(O)c1c(S(=O)(=O)NCc2ccsc2)sc2c1CCNC2` are -5% and 0.89.
The matching figures for `CC(C)(Oc1ccc2c(c1)CCC2)C(=O)Nc1nccs1`: -7% and 0.63.
For the molecule `Cc1cc(C(=O)N2CCOC[C@H](Oc3ccc(S(C)(=O)=O)cc3)C2)c(C(F)(F)F)o1`, the “% Inhibition” value was -1% and the Z score is on record as 0.27.
Regarding `Fc1ccc(-c2cn[nH]c2[C@H]2CCCNC2)cc1`, the “% Inhibition” value stood at 12% and the Z score was -1.37.
The matching figures for `COCc1cc(Cn2cc(-c3cc(C(C)(C)C)[nH]n3)nn2)n[nH]1`: -10% and 1.31.
The corresponding values for `Cc1ccccc1CN1C(=O)NC(C2CC2)(C2CC2)C1=O` are 9% and -1.38.
The corresponding values for `Cc1ccc(S(=O)(=O)NCc2nc(-c3cnn(C)c3)no2)s1` are -26% and 3.36.
Take `CC1CC(C(=O)N2CCC[C@@H](O)C2)CC(C)(C)C1` (stereo partly specified): the “% Inhibition” value is given as -11% and the Z score was determined as 1.43.
The matching figures for `CCCN1CCC[C@H]1CNC(=O)C1CCCCN1S(=O)(=O)CCC` (stereo partly specified): -8% and 1.05.
For the molecule `Cc1cc(C(=O)N(C[C@H]2CCCO2)c2nc3c(C)ccc(Cl)c3s2)on1`, the “% Inhibition” value is given as -8% and the Z score was determined as 1.5.
The matching figures for `CN1CCN(Cc2nnnn2C)c2ccc(Cl)cc21`: 16% and -1.82.
The matching figures for `Cn1ncc(Oc2ccc(F)cc2)c(Nc2ccc(C(=O)NCCc3ccccn3)cc2)c1=O`: -10% and 1.14.
As for `CCOC(=O)[C@H]1CCCN(C(=O)N(CC)CC)C1`, the “% Inhibition” value is 9% and the Z score is on record as -1.81.
On to `CCCc1c(C(=O)OCC)c(C(=O)OCC)c2c(-c3ccccc3)nc(N3CCOCC3)nn12`, for which the “% Inhibition” value is recorded as -7% and the Z score came to 0.96.
The corresponding values for `CCN(CC(C)C)C(=O)c1cc(C)on1` are -6% and 0.68.
The matching figures for `CC(C)c1cc(C(=O)N2CC3CCCCC3C2)on1` (stereo unspecified): 30% and -3.39.
For `O=C(COc1ccc(-c2ncccn2)cc1CN1CCCCCC1)NC[C@H]1CCCO1`, the “% Inhibition” value amounted to 2% and the Z score is listed as -0.18.
In the case of `O=C1CNC(=O)N1CCN1CC2CCCCC21c1ccccc1` (stereo unspecified), the “% Inhibition” value is 11% and the Z score was -1.95.
With `Cc1ccc([C@@H](C)Cc2cn(Cc3nnc4ccccn34)nn2)o1`, the “% Inhibition” value was -15% and the Z score stood at 1.91.
The corresponding values for `Fc1ccc(-c2noc([C@H]3CCCN(c4nc5ccccc5o4)C3)n2)cc1` are 0% and 0.08.
The matching figures for `Cc1ncccc1NC(=O)c1ccc([C@H]2CCCOC2)cc1`: -1% and 0.18.
The corresponding values for `COC[C@H]1CCCN1C(=O)CCc1scnc1C` are -5% and 0.87.
Consider `CC(C)(C)NC(=O)NCc1cccnc1-c1cccs1`, for which the “% Inhibition” value turned out to be 5% and the Z score is reported as -0.56.
As for `Cc1n[nH]c(-c2ccc(S(=O)(=O)N3CCN(C)CC3)o2)c1C`, the “% Inhibition” value is -3% and the Z score is listed as 0.52.
The matching figures for `COc1nc(C)nc2c1ccc1ccccc12`: -9% and 1.02.
The matching figures for `COc1ccc(-c2nnc(-c3ccccc3)n2-c2cccnc2)cc1`: -2% and 0.3.
The matching figures for `CCN1CCN(Cc2ccc3c(c2)OCCO3)[C@H]2CS(=O)(=O)C[C@H]21`: -6% and 1.21.
In the case of `CC(=O)N1CC2(CCN(C(=O)c3cnc(C(C)(C)C)s3)CC2)[C@H]2COC[C@H]21`, the “% Inhibition” value is 1% and the Z score was -0.15.
The corresponding values for `c1cnn(C2CN(C[C@@H]3CCCN4CCCC[C@H]34)C2)c1` are -4% and 0.39.
The matching figures for `CO[C@@H]1CC[C@@]2(OC)CCN(C(=O)c3cnoc3-c3ccccc3)[C@H]2C1`: -7% and 1.13.
The corresponding values for `CC1CCN(C(=O)CN(C)C2CCCC2)CC1` are -11% and 1.28.
Turning to `O=C(Nc1nnc2ccccn12)c1cccc(F)c1`, the “% Inhibition” value amounted to 0% and the Z score was found to be 0.05.
For `COc1ccc(NC(=O)N2CC[C@H]3COC(=O)N3c3ccccc3C2)cc1`, the “% Inhibition” value is recorded as -3% and the Z score came out at 0.42.
The matching figures for `CCC(=O)Nc1ccnn1C1CCCCC1`: -8% and 1.11.

What is called % Inhibition is the relative decrease from the control value, in per cent.
